Experimental data from the supplement of paper PMC4604168 (melanoma cell lines).
The other results are listed elsewhere or left out. Most values come without repeats; read them as rough.

Tests used:
Experiment in all cases: cell count relative to DMSO control; melanoma cells; higher = more viable cells
Conditions in all cases: library dose: standard library concentration; 72 h
[1] = test system: SkMel28
[2] = test system: SkMel2
[3] = test system: SkMel30
[4] = test system: SkMel5
[5] = test system: UACC257
[6] = test system: UACC62
[7] = test system: WM115
[8] = test system: WM1716
[9] = test system: WM1745
[10] = test system: WM3526
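Further: cells treated in 1,536-well plates, then fixed and DAPI-stained, with nuclei counted from automated high-throughput microscope images.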

Cn1c(=O)n(-c2ccc(C(C)(C)C#N)cc2)c2c3cc(-c4cnc5ccccc5c4)ccc3ncc21 + COc1ccc(Cl)c(Nc2nc3ccccc3nc2NS(=O)(=O)c2cccc(NC(=O)C(C)(C)N)c2)c1 [XL147] (first compound 0.02 µM, partner dose 4 µM)
cell count [1]: 51.9%
cell count [2]: 65.8%
cell count [3]: 86.8%
cell count [4]: 72%
cell count [5]: 97.3%
cell count [6]: 99%
cell count [7]: 103%
cell count [8]: 82.9%
cell count [9]: 86.1%
cell count [10]: 81.1%

Cc1cn(-c2cc(NC(=O)c3ccc(C)c(Nc4nccc(-c5cccnc5)n4)c3)cc(C(F)(F)F)c2)cn1 [nilotinib] + NC1(c2ccc(-c3nc4ccn5c(=O)[nH]nc5c4cc3-c3ccccc3)cc2)CCC1 [MK2206] (first compound 1 µM, partner dose 2 µM)
cell count [1]: 49.1%
cell count [2]: 67.9%
cell count [3]: 88.6%
cell count [4]: 64%
cell count [5]: 106%
cell count [6]: 47.6%
cell count [7]: 45.7%
cell count [8]: 81.2%
cell count [9]: 101%
cell count [10]: 63.3%

Cn1c(=O)n(-c2ccc(C(C)(C)C#N)cc2)c2c3cc(-c4cnc5ccccc5c4)ccc3ncc21 + C[C@]1(c2nc3c(C(N)=O)cccc3[nH]2)CCCN1 [Veliparib] (first compound 0.02 µM, partner dose 7 µM)
cell count [1]: 44.6%
cell count [2]: 59%
cell count [3]: 66.7%
cell count [4]: 49%
cell count [5]: 81.4%
cell count [6]: 66.1%
cell count [7]: 64.9%
cell count [8]: 73.1%
cell count [9]: 93.8%
cell count [10]: 60.5%

Cc1cn(-c2cc(NC(=O)c3ccc(C)c(Nc4nccc(-c5cccnc5)n4)c3)cc(C(F)(F)F)c2)cn1 [nilotinib] + COc1ccc(Cl)c(Nc2nc3ccccc3nc2NS(=O)(=O)c2cccc(NC(=O)C(C)(C)N)c2)c1 [XL147] (first compound 1 µM, partner dose 4 µM)
cell count [1]: 79.4%
cell count [2]: 107%
cell count [3]: 83.6%
cell count [4]: 69%
cell count [5]: 104%
cell count [6]: 96.7%
cell count [7]: 98.3%
cell count [8]: 108%
cell count [9]: 92.5%
cell count [10]: 115%

Cc1cc(Nc2cc(N3CCN(C)CC3)nc(/C=C/c3ccccc3)n2)n[nH]1 + Cn1c(Nc2ccc(C(F)(F)F)cc2)nc2cc(Oc3ccnc(-c4ncc(C(F)(F)F)[nH]4)c3)ccc21 [CHIR265] (first compound 0.2 µM, partner dose 0.4 µM)
cell count [1]: 43.1%
cell count [2]: 66.9%
cell count [3]: 60.6%
cell count [4]: 39.6%
cell count [5]: 85.4%
cell count [6]: 38.6%
cell count [7]: 34.4%
cell count [8]: 69.3%
cell count [9]: 55.2%
cell count [10]: 43.9%

COc1ccc(C2=N[C@@H](c3ccc(Cl)cc3)[C@@H](c3ccc(Cl)cc3)N2C(=O)N2CCNC(=O)C2)c(OC(C)C)c1 [Nutlin-3] + CN1CCN(c2ccc3nc(-c4c(N)c5c(F)cccc5[nH]c4=O)[nH]c3c2)CC1 [Dovitinib] (first compound 0.5 µM, partner dose 0.5 µM)
cell count [1]: 62.1%
cell count [2]: 88.4%
cell count [3]: 74.6%
cell count [4]: 47.5%
cell count [5]: 69.4%
cell count [6]: 49%
cell count [7]: 60.9%
cell count [8]: 63.4%
cell count [9]: 63.8%
cell count [10]: 74.4%

COc1ccc(C2=N[C@@H](c3ccc(Cl)cc3)[C@@H](c3ccc(Cl)cc3)N2C(=O)N2CCNC(=O)C2)c(OC(C)C)c1 [Nutlin-3] + C=CCn1c(=O)c2cnc(Nc3ccc(N4CCN(C)CC4)cc3)nc2n1-c1cccc(C(C)(C)O)n1 [MK1775] (first compound 0.5 µM, partner dose 0.1 µM)
cell count [1]: 27.2%
cell count [2]: 78.1%
cell count [3]: 79.1%
cell count [4]: 43.1%
cell count [5]: 79.6%
cell count [6]: 47.7%
cell count [7]: 46.6%
cell count [8]: 59.8%
cell count [9]: 59.9%
cell count [10]: 83.2%

Cn1c(=O)n(-c2ccc(C(C)(C)C#N)cc2)c2c3cc(-c4cnc5ccccc5c4)ccc3ncc21 + Nc1ccn([C@@H]2O[C@H](CO)[C@@H](O)C2(F)F)c(=O)n1 [gemcitabine] (first compound 0.02 µM, partner dose 0.002 µM)
cell count [1]: 50%
cell count [2]: 78.5%
cell count [3]: 59%
cell count [4]: 82.8%
cell count [5]: 90.3%
cell count [6]: 57.2%
cell count [7]: 60.7%
cell count [8]: 51%
cell count [9]: 57.9%
cell count [10]: 66.8%

Cn1c(=O)n(-c2ccc(C(C)(C)C#N)cc2)c2c3cc(-c4cnc5ccccc5c4)ccc3ncc21 + O=C(O)c1ccc(-c2c[nH]c3ncc(-c4ccccc4)cc23)cc1C1CCCC1 [GSK650394] (first compound 0.02 µM, partner dose 0.8 µM)
cell count [1]: 45.6%
cell count [2]: 76%
cell count [3]: 83.4%
cell count [4]: 87.5%
cell count [5]: 95.8%
cell count [6]: 76.7%
cell count [7]: 62.8%
cell count [8]: 70.6%
cell count [9]: 95.4%
cell count [10]: 77.9%

Cn1c(=O)n(-c2ccc(C(C)(C)C#N)cc2)c2c3cc(-c4cnc5ccccc5c4)ccc3ncc21 + CS(=O)(=O)CCNCc1ccc(-c2ccc3ncnc(Nc4ccc(OCc5cccc(F)c5)c(Cl)c4)c3c2)o1 [lapatinib] (first compound 0.02 µM, partner dose 4 µM)
cell count [1]: 37%
cell count [2]: 47.5%
cell count [3]: 57.2%
cell count [4]: 49.2%
cell count [5]: 106%
cell count [6]: 41.7%
cell count [7]: 66.9%
cell count [8]: 65.7%
cell count [9]: 81.6%
cell count [10]: 54.1%

Cc1cc(Nc2cc(N3CCN(C)CC3)nc(/C=C/c3ccccc3)n2)n[nH]1 + CC(C)C[C@H](NC(=O)[C@H](Cc1ccccc1)NC(=O)c1cnccn1)B(O)O [Bortezomib] (first compound 0.2 µM, partner dose 0.005 µM)
cell count [1]: 26.2%
cell count [2]: 34.1%
cell count [3]: 23.5%
cell count [4]: 34.2%
cell count [5]: 76.7%
cell count [6]: 67.7%
cell count [7]: 23.1%
cell count [8]: 37.9%
cell count [9]: 18.8%
cell count [10]: 31.9%

COc1ccc(C2=N[C@@H](c3ccc(Cl)cc3)[C@@H](c3ccc(Cl)cc3)N2C(=O)N2CCNC(=O)C2)c(OC(C)C)c1 [Nutlin-3] + Nc1ncn([C@H]2C[C@H](O)[C@@H](CO)O2)c(=O)n1 [decitabine] (first compound 0.5 µM, partner dose 0.5 µM)
cell count [1]: 48.6%
cell count [2]: 92.8%
cell count [3]: 88.4%
cell count [4]: 64.3%
cell count [5]: 74.8%
cell count [6]: 52%
cell count [7]: 62.6%
cell count [8]: 68.1%
cell count [9]: 78.1%
cell count [10]: 84.7%

Cn1c(=O)n(-c2ccc(C(C)(C)C#N)cc2)c2c3cc(-c4cnc5ccccc5c4)ccc3ncc21 + Cc1cc(N2CCOCC2)cc2[nH]c(-c3c(NC[C@@H](O)c4cccc(Cl)c4)cc[nH]c3=O)nc12 [BMS536924] (first compound 0.02 µM, partner dose 1 µM)
cell count [1]: 64.3%
cell count [2]: 61.8%
cell count [3]: 72%
cell count [4]: 45%
cell count [5]: 81.4%
cell count [6]: 63.9%
cell count [7]: 78.3%
cell count [8]: 75.7%
cell count [9]: 53.2%
cell count [10]: 43.6%

Cc1cc(Nc2cc(N3CCN(C)CC3)nc(/C=C/c3ccccc3)n2)n[nH]1 + CN1CCN(c2ccc3nc(-c4c(N)c5c(F)cccc5[nH]c4=O)[nH]c3c2)CC1 [Dovitinib] (first compound 0.2 µM, partner dose 0.5 µM)
cell count [1]: 62.4%
cell count [2]: 52.9%
cell count [3]: 83.2%
cell count [4]: 55.6%
cell count [5]: 72.6%
cell count [6]: 61.7%
cell count [7]: 68.2%
cell count [8]: 75.7%
cell count [9]: 65.2%
cell count [10]: 80.2%

Cc1cn(-c2cc(NC(=O)c3ccc(C)c(Nc4nccc(-c5cccnc5)n4)c3)cc(C(F)(F)F)c2)cn1 [nilotinib] + C=CCNC1=C2C[C@@H](C)C[C@H](OC)[C@H](O)[C@@H](C)/C=C(\C)[C@H](OC(N)=O)[C@@H](OC)/C=C\C=C(/C)C(=O)NC(=CC1=O)C2=O [Tanespimycin] (first compound 1 µM, partner dose 0.01 µM)
cell count [1]: 52.4%
cell count [2]: 84.1%
cell count [3]: 114%
cell count [4]: 57.8%
cell count [5]: 93%
cell count [6]: 57.6%
cell count [7]: 23.9%
cell count [8]: 98.6%
cell count [9]: 53.5%
cell count [10]: 68.2%

COc1ccc(C2=N[C@@H](c3ccc(Cl)cc3)[C@@H](c3ccc(Cl)cc3)N2C(=O)N2CCNC(=O)C2)c(OC(C)C)c1 [Nutlin-3] + C[C@@H]1CCN(C(=O)CC#N)C[C@@H]1N(C)c1ncnc2[nH]ccc12 [CP690550] (first compound 0.5 µM, partner dose 5 µM)
cell count [1]: 69%
cell count [2]: 91.4%
cell count [3]: 104%
cell count [4]: 67.9%
cell count [5]: 83%
cell count [6]: 66.5%
cell count [7]: 71.7%
cell count [8]: 76.6%
cell count [9]: 63%
cell count [10]: 90.7%

Cc1cn(-c2cc(NC(=O)c3ccc(C)c(Nc4nccc(-c5cccnc5)n4)c3)cc(C(F)(F)F)c2)cn1 [nilotinib] + NC(=O)Nc1cc(-c2cccc(F)c2)sc1C(=O)N[C@H]1CCCNC1 [AZD7762] (first compound 1 µM, partner dose 0.1 µM)
cell count [1]: 44.8%
cell count [2]: 83%
cell count [3]: 77.9%
cell count [4]: 86.2%
cell count [5]: 102%
cell count [6]: 48.8%
cell count [7]: 58.2%
cell count [8]: 62.7%
cell count [9]: 54.9%
cell count [10]: 50.5%
